Assay results as given in PMC13541613.
This is a selection; strong and weak results do not stand in their true shares. At the low end of the ranking, values are background and their order means little.

The sequences below were run against ZNF721 DBD1 (UniProt Q8TF20-2) (assay: HT-SELEX). Conditions: 20 mM HEPES pH 7, 140 mM KCl, 5 mM NaCl, 1 mM K2HPO4, 2 mM MgSO4, 100 uM EGTA, ZnSO4, 0.1% Tween20; room temperature, 1 h; high values mean tight binding; double strand, one strand shown.

Sequence	binding signal (relative 10-mer count)
ACACTGCTTG	0.000826
ACAGTGTTGC	0.000321
AACAGCATCC	0.000871
AAACGAACAG	0.000367
GAGACACTGC	0.000321
TAAAACAGCA	0.000367
CACCGCCCCA	0.00404
CCCTGTTTTC	0.000459
AAAGGAACAG	0.000596
AAAAACAGCC	0.000459
AAAACTAGCA	0.000367
CACCGCCACC	0.00339
CAAAACAGCG	0.000321
GCAACACTGC	0.000229
CAGAAAACAG	0.000459
CCCCCTCCCG	0.00573
AAAACAGTAC	0.000367
AAAAACAGCA	0.000826
CAAAAACAGC	0.000642

Sequence	binding signal (relative 10-mer count)
AAACAGCGTT	0.000183
AAAAACAGGA	0.000459
GCCCCCCGCC	0.00477
AAAGCTATCC	0.0786
ACAGCATACC	0.000688
AACAGCGTAT	0.00055
CGAAAACAGC	0.000275
CCAAAAAACA	0.00174
AAACAGTGTT	0.000596
AAACACTGTT	0.000367
AACAGCGTAC	0.000963
CCTCCCCACC	0.0111
AAACAGGGTA	0.000826
CCCCTCCACC	0.0117
CAGGGGTGGG	0.00482
CCTCCTCCCC	0.00881
CCCACCGTCC	0.00449
AAACAGAGTA	0.000183
AAAAAACAGA	0.000596
